The campaign covered roughly 48,000 compounds. About 550 (1.1%) were called active. About 4% were inconclusive and are not listed. Cut-off read from the data, not from the text of the source: active = potency below about 15 µM; inconclusive = mostly about 16 µM to 33 µM; inactive = weaker than that. This is one part of the list.
What follows are compounds tested against Lysosomal acid glucosylceramidase (Homo sapiens) (UniProt P04062) (assay: Glucocerebrosidase). Conditions: purified enzyme, resorufin glucoside fluorescence (screen aimed at inhibitors), 20 min; series mostly up to 77 µM.
How it was run: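 Normal human glucocerebrosidase (0.2 nM final) was assayed with resorufin β-D-glucopyranoside (30 uM final) in 50mM citric acid/KH2PO4, 10mM sodium taurocholate, 0.01% tween-20, pH 5.9. Compounds were titrated; fluorescence (Ex 548, Em 600) read after 20 min at RT.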
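Note: the screen sought inhibitors.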
Potency is the fitted concentration of half-maximal effect.

UniProt P04062, sequence (P04062 whole entry, looked up): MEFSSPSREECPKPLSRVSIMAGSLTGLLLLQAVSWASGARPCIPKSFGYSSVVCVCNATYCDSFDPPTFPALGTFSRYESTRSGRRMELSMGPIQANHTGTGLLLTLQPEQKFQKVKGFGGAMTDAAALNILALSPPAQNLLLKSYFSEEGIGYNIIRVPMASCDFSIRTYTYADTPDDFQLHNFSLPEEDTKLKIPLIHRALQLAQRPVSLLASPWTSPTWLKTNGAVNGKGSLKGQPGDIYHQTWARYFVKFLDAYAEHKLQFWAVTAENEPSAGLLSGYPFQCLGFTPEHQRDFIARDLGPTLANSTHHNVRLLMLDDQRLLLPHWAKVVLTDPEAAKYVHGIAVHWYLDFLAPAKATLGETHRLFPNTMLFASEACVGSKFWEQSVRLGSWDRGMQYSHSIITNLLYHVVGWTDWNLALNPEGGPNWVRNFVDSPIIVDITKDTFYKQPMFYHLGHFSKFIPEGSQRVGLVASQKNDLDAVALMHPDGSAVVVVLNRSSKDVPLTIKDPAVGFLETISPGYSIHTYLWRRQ

Potency, inactive:
Cc1cc(C(=O)COC(=O)C2COc3ccccc3O2)c(C)n1CC1CCCO1 (stereo not drawn) > 76.9 µM
COc1ccc(S(=O)(=O)N2CCC(C(=O)NCCc3ccc4c(c3)OCO4)CC2)cc1 > 76.9 µM
C/C(N)=C(/C#N)C(=O)CSc1n[nH]c(-c2ccccc2Br)n1 > 76.9 µM
CN1C(=O)SC(Nc2ccccc2C(=O)O)C1=O (stereo not drawn) > 76.9 µM
O=C1CC(c2ccc3c(c2)OCO3)C2=C(CCCC2=O)N1 (stereo not drawn) > 76.9 µM
CCN1CCN(C(c2cccs2)C(C)NC(=O)c2ccco2)CC1 (stereo not drawn) > 76.9 µM
O=C(NCCCN1CCOCC1)c1cc(-c2ccc(F)cc2)on1 > 76.9 µM
O=C(CSc1nnc(-c2cccnc2)n1-c1ccccc1)Nc1ccccn1 > 76.9 µM
O=C(NCCOc1ccccc1)C1CCCN1C(=O)c1cccs1 (stereo not drawn) > 76.9 µM
Cc1c(C(=O)N2CCOCC2)oc2ccc(S(=O)(=O)N3CCCCCC3)cc12 > 76.9 µM
CCOc1ccc(CCNC(=O)CCN2C(=O)COc3ccccc32)cc1OCC > 76.9 µM
COc1cnn(-c2ccccc2)c(=O)c1N(C)C > 76.9 µM
CCOC(=O)N1CCN(C(=O)CSCC(=O)Nc2nc(-c3ccc(Cl)s3)cs2)CC1 > 76.9 µM
COc1ccc(-n2nnnc2SCC(=O)NCCc2ccc(OC)c(OC)c2)cc1 > 76.9 µM
CCOc1ccccc1OCC(=O)OCC(=O)Nc1ncc(Cl)cc1Cl > 76.9 µM
Cc1c(NS(C)(=O)=O)c(=O)n(-c2ccccc2)n1C > 76.9 µM
O=C(COC(=O)C1CCCN1C(=O)c1cccs1)c1ccccc1 (stereo not drawn) > 76.9 µM
O=C(NCC1CCCO1)C1CCC(CNS(=O)(=O)c2ccccc2)CC1 (stereo not drawn) > 76.9 µM
CC(C)(C)N=C1SCC(C)(/C=N/O)S1 (stereo not drawn) > 76.9 µM
O=C(CSc1nnc(-c2c[nH]c3ccccc23)n1-c1ccc(F)cc1)NCc1ccco1 > 76.9 µM
O=C1CCCN1CCC1CCN(C(=O)Nc2ccccc2)CC1 > 76.9 µM
CCOC(=O)c1ccc(-n2ncc(C(=O)OCC)c2N)cc1 > 76.9 µM
Cn1c(=O)cc(SCC(=O)NCCCN2CCOCC2)c2ccccc21 > 76.9 µM
COC(=O)c1cc2ccccc2c(=O)s1 > 76.9 µM
O=C(O)Cc1csc2ccccc12 > 76.9 µM
CS(=O)(=O)N(CC(=O)NCCSc1ccccc1)c1ccc2c(c1)OCO2 > 76.9 µM
Cc1nc2c(oc3ccccc32)c(=O)o1 > 76.9 µM
O=C(NCCCN1CCOCC1)[C@@H]1CSC2c3ccccc3C(=O)N21 (stereo partly drawn) > 76.9 µM
COCCCNc1oc(-c2ccccc2OC)nc1C#N > 76.9 µM
Cn1c(CN2CCOCC2)nc2cc(NC(=O)c3ccccc3Cl)ccc21 > 76.9 µM
CSc1ccc(S(=O)(=O)Nc2cccc(F)c2)cc1
COc1cccc(NC(=O)Cc2nnc(SCC(=O)c3ccccc3)n2C)c1 > 76.9 µM
Cc1cc(C(=O)CN2C(=O)NC(c3ccccc3)(c3ccccc3)C2=O)c(C)n1Cc1ccco1 > 76.9 µM
CCS(=O)(=O)n1nc(-c2ccc(C)cc2)nc1N > 76.9 µM
O=C1NCCN1Cc1cccc(Cl)c1 > 76.9 µM
CC(=O)Nc1ccc(NC(=O)N2CCCCC2)cc1 > 76.9 µM
Cc1cccc(N2CC3=C(C2=O)C(c2ccccc2)NC(=O)N3C)c1 (stereo not drawn) > 76.9 µM
CNc1sc(C(=O)c2cccs2)c(N)c1-c1nc2ccccc2s1 > 76.9 µM
CCc1ccc(NC(=O)CSc2nc3cc(C(=O)OC)ccc3c(=O)n2Cc2ccco2)cc1 > 76.9 µM
CCOC(=O)N1CCN(C(=O)CN(c2cccc(C)c2)S(=O)(=O)c2ccc(C)cc2)CC1 > 76.9 µM
CCOC(=O)Cn1c(=O)oc2cc(S(=O)(=O)NCCc3ccc(OCC)c(OCC)c3)ccc21 > 76.9 µM
COc1ccc(C(C)=O)cc1COC(=O)c1cnc(C)cn1 > 76.9 µM
COc1ncnc2c1oc1nc(C(C)C)c3c(c12)CC(C)(C)OC3 > 76.9 µM
O=C(O)c1cccc(COc2ccc(CO)cc2Cl)c1 > 76.9 µM
O=c1sc2ccccc2n1CCOc1ccccc1 > 76.9 µM
O=C1c2ccccc2C(=O)N1CCCc1nc(-c2ccccn2)no1 > 76.9 µM
COc1ccccc1Oc1c(C)oc2c(CN3CCN(C)CC3)c(O)ccc2c1=O > 76.9 µM
COc1ccc(NC(=O)C(C)NS(=O)(=O)c2ccc(NC(C)=O)cc2)cc1Cl (stereo not drawn) > 76.9 µM
CC1CCCC(C)N1C(=O)Cn1c(SCC(=O)NCc2ccc3c(c2)OCO3)nc2ccccc21 (stereo not drawn) > 76.9 µM
COc1ccc(NC(C)=O)cc1NC(=O)CSc1nnc(-c2ccc(F)cc2)n1N > 76.9 µM
CN1C(=O)N(c2cccc3ccccc23)C(n2cncn2)C1(C)C (stereo not drawn) > 76.9 µM
C=CCn1c(SCC(=O)Nc2cc(NC(C)=O)ccc2OC)nnc1-c1ccccn1 > 76.9 µM
Cn1c(-c2ccc3c(c2)OCO3)cnc1NC(=O)CCC(=O)NCCc1ccccc1 > 76.9 µM
COc1ccc(C2CC(=O)N3CN(Cc4ccco4)CSC3=C2C#N)cc1 (stereo not drawn) > 76.9 µM
Cc1ccc(S(=O)(=O)N(C)CC(=O)N2CCN(c3ccccn3)CC2)cc1 > 76.9 µM
CN(C(=O)C12CC3CC(CC(C3)C1)C2)C1(C)CCS(=O)(=O)C1 (stereo not drawn) > 76.9 µM
COc1ccc2nc(C)cc(Nc3ccc(N4CCOCC4)cc3)c2c1
O=C(NCc1cccs1)c1ccncc1 > 76.9 µM
